# Test results as given in PubChem BioAssay AID686979 (National Center for Advancing Translational Sciences (NCATS), 2013).
# Hit rate of the full screen: of about 420,000 compounds, about 50,000 (12%) were called active. This list was built around the results that the source calls inconclusive (neither active nor inactive); the mix of calls is not that of the screen. Calls follow the shape of the dose curve; as a rule, active = well fitted inhibition curve with a large enough effect; inconclusive = small, poorly fitted or top-dose-only effect; inactive = flat fitted curve, though single readings scatter. No potency is given beside an inconclusive call; the fits are too rough.
# Experiment: qHTS for Inhibitors of human tyrosyl-DNA phosphodiesterase 1 (TDP1): qHTS in cells in presence of CPT; also: nearly all actives have a fitted effect of over 55% in size
# Conditions: chicken DT40 Tdp1-/-;hTDP1 cells + 20 nM CPT, ATP luminescence, 48 h; activity change, negative = growth inhibition: at 46.2 µM (top of the series)
# Procedure, shortened: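 Cell growth measured by CellTiter-Glo luminescence after a minimum 48 h, 37 C compound exposure with 20 nM CPT in Tdp1-knockout DT40 cells stably expressing hTDP1, seeded 400/well; qHTS titration format.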
# % is scaled to controls: 0 for no effect and ±100 for the full control effect; potency is read from the fitted curve at half-maximal effect; tags tell the direction and shape of the fitted curve.
Structure (SMILES),Potency,"activity change, negative = growth inhibition"
CC(=O)NC(NC(=S)Nc1ccc(N=Nc2ccccc2)cc1)C(Cl)(Cl)Cl (stereo not drawn),"inconclusive [inhibitor, single point]",
COc1ccccc1N(CC(O)COc1c(C)cc(C)cc1C)S(=O)(=O)c1ccccc1 (stereo not drawn),"inconclusive [inhibitor, single point]",
CC(C)(C)c1ccc(OCC(=O)NNC(=S)NC(=O)c2ccco2)c(Br)c1,active: 20.6 µM,
Cc1cccc(-c2c3c(=O)n(C)c(=O)n(C)c3cn2-c2ccc(O)cc2)c1,"inconclusive [inhibitor, partial curve]",
O=[N+]([O-])c1ccc(NCCc2ccccc2)c(Br)c1,inactive,
Cc1ccc(Sc2ncccc2C(=O)NCc2cc([N+](=O)[O-])ccc2O)cc1C,"inconclusive [inhibitor, partial curve]",
Cc1ccn(CCNC(=O)C2CCC(=O)N(CCc3ccc(Cl)cc3)C2)n1 (stereo not drawn),inactive,
COc1ccc(-c2cc3c(c4c2ccn4C)C2CCC3O2)cn1 (stereo not drawn),active: 18.4 µM,
Cc1cc(C)n2nc(-c3ccsc3-n3c(C)ccc3C)cc2n1,,inconclusive: -34.2% [inhibitor]
COC1OC2COC(c3ccccc3)OC2C(=O)C1NC(=O)c1ccccc1 (stereo not drawn),inactive,
c1coc(CNc2ncnc3c2[nH]c2ccccc23)c1,active: 12.6 µM,
O=C(COC(=O)CCC(=O)c1ccc(F)cc1)Nc1ccc(Cl)cn1,inactive,
CCOc1cc(NC(=S)NCCCOC)c(OCC)cc1NC(=O)c1cccs1,inactive,
COc1cccc(/C=C/C(=O)Nc2ccccc2N2CCOCC2)c1,inactive,
CC(=O)Nc1ccc(Nc2c3ccccc3nc3ccccc23)cc1,active: 0.326 µM,
CCN1CCN(Cc2c(C(=O)N/N=C(\C)c3ccc(Cl)cc3)nnn2-c2nonc2N)CC1,inactive,
C=C(Br)Cn1c(CC(C)C)nc2ccccc21,active: 11.6 µM,
O=C(CSc1nc2c(c(=O)[nH]1)CCCC2)Nc1ccccc1C(F)(F)F,inactive,
COc1cc(NS(=O)(=O)c2ccc(N/C=C(\C#N)c3nc4cc(Cl)ccc4o3)cc2)nc(OC)n1,active: 9.2 µM,
OCCCN=c1cc(-c2ccccc2)oc2ccc(Cl)cc12,"inconclusive [inhibitor, single point]",
Cc1ccccc1CNC(=O)C1CCCN(c2nnc(C)c3c(C)n(-c4ccccc4)nc23)C1 (stereo not drawn),active: 23.1 µM,
CCn1cc(C(=O)NCc2ccc3c(c2)OCO3)c(=O)c2cc(S(=O)(=O)N(C)C)ccc21,"inconclusive [inhibitor, single point]",
C/C(=N\NC(=O)CC#N)c1ccc(Oc2ccccc2)cc1,"inconclusive [inhibitor, partial curve]",
